Laboratory results reported in the supplement of paper PMC8728848.
The list shows a part of the results.

How the values were obtained:
Test in all cases: glycan array binding signal (z-score within array); higher = stronger binding
Details in all cases: glycan notation: IUPAC condensed, linker removed
[1] = target: Man(a1-3)[Man(a1-6)]Man(a1-6)[Man(a1-3)]Man
Outline: (§1)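 The binding signal is a Z-score computed within each array and averaged over linkers. Arrays of the same protein sequence at different concentrations or buffers were also averaged together. Data originate from 3228 arrays in the Consortium for Functional Glycomics database, kept only where the protein sequence was available.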

[2] = target: Man(a1-3)[Man(a1-6)]Man(a1-6)[Man(a1-3)]Man(b1-4)GlcNAc(b1-4)GlcNAc
Outline: as §1

[3] = target: Man(a1-3)[Man(a1-6)]Man(b1-4)GlcNAc(b1-4)GlcNAc
Outline: as §1

[4] = target: Man(a1-3)[Man(a1-6)]Man(b1-4)GlcNAc(b1-4)[Fuc(a1-6)]GlcNAc
Outline: as §1

Man(a1-6)Man = target: Man(a1-6)Man
Outline: as §1

Man(b1-4)GlcNAc = target: Man(b1-4)GlcNAc
Outline: as §1

MurNAc(b1-4)GlcNAc = target: MurNAc(b1-4)GlcNAc
Outline: as §1

Neu5Ac(a2-3)Gal = target: Neu5Ac(a2-3)Gal
Outline: as §1

[5] = target: Neu5Ac(a2-3)Gal(b1-3)GalNAc
Outline: as §1

[6] = target: Neu5Ac(a2-3)Gal(b1-3)GalNAc(b1-3)Gal(a1-4)Gal(b1-4)Glc
Outline: as §1

[7] = target: Neu5Ac(a2-3)Gal(b1-3)GalNAc(b1-4)[Neu5Ac(a2-3)]Gal(b1-4)Glc
Outline: as §1

[8] = target: Neu5Ac(a2-3)Gal(b1-3)GalNAc(b1-4)[Neu5Ac(a2-8)Neu5Ac(a2-3)]Gal(b1-4)Glc
Outline: as §1

[9] = target: Neu5Ac(a2-3)Gal(b1-3)GalNAc6S
Outline: as §1

[10] = target: Neu5Ac(a2-3)Gal(b1-3)GlcNAc
Outline: as §1

[11] = target: Neu5Ac(a2-3)Gal(b1-3)GlcNAc(b1-2)Man
Outline: as §1

[12] = target: Neu5Ac(a2-3)Gal(b1-3)GlcNAc(b1-2)Man(a1-3)[GlcNAc(b1-4)][Neu5Ac(a2-3)Gal(b1-3)GlcNAc(b1-2)Man(a1-6)]Man(b1-4)GlcNAc(b1-4)GlcNAc
Outline: as §1

[13] = target: Neu5Ac(a2-3)Gal(b1-3)GlcNAc(b1-2)Man(a1-3)[Neu5Ac(a2-3)Gal(b1-3)GlcNAc(b1-2)Man(a1-6)]Man(b1-4)GlcNAc(b1-4)GlcNAc
Outline: as §1

[14] = target: Neu5Ac(a2-3)Gal(b1-3)GlcNAc(b1-3)Gal(b1-3)GlcNAc
Outline: as §1

[15] = target: Neu5Ac(a2-3)Gal(b1-3)GlcNAc(b1-3)Gal(b1-4)GlcNAc
Outline: as §1

[16] = target: Neu5Ac(a2-3)Gal(b1-3)GlcNAc(b1-3)GalNAc
Outline: as §1

[17] = target: Neu5Ac(a2-3)Gal(b1-3)GlcNAc(b1-4)Gal(b1-4)Glc
Outline: as §1

[18] = target: Neu5Ac(a2-3)Gal(b1-3)GlcNAc(b1-6)GalNAc
Outline: as §1

[19] = target: Neu5Ac(a2-3)Gal(b1-3)GlcNAc6S
Outline: as §1

[20] = target: Neu5Ac(a2-3)Gal(b1-3)[Fuc(a1-4)]GlcNAc
Outline: as §1

[21] = target: Neu5Ac(a2-3)Gal(b1-3)[Fuc(a1-4)]GlcNAc(b1-3)Gal(b1-3)[Fuc(a1-4)]GlcNAc
Outline: as §1

[22] = target: Neu5Ac(a2-3)Gal(b1-3)[Fuc(a1-4)]GlcNAc(b1-3)Gal(b1-4)[Fuc(a1-3)]GlcNAc
Outline: as §1

[23] = target: Neu5Ac(a2-3)Gal(b1-3)[GlcNAc(b1-6)]GalNAc
Outline: as §1

[24] = target: Neu5Ac(a2-3)Gal(b1-3)[Neu5Ac(a2-6)]GalNAc
Outline: as §1

[25] = target: Neu5Ac(a2-3)Gal(b1-3)[Neu5Ac(a2-6)]GlcNAc(b1-3)[Fuc(a1-3)[Gal(b1-4)]GlcNAc(b1-6)]Gal(b1-4)Glc
Outline: as §1

[26] = target: Neu5Ac(a2-3)Gal(b1-3)]Neu5Ac(a2-3)Gal(b1-4)]GlcNAc
Outline: as §1

Neu5Ac(a2-3)Gal(b1-4)Glc = target: Neu5Ac(a2-3)Gal(b1-4)Glc
Outline: as §1

[27] = target: Neu5Ac(a2-3)Gal(b1-4)GlcNAc
Outline: as §1

[28] = target: Neu5Ac(a2-3)Gal(b1-4)GlcNAc(b1-2)Man
Outline: as §1

[29] = target: Neu5Ac(a2-3)Gal(b1-4)GlcNAc(b1-2)Man(a1-3)[GlcNAc(b1-4)][Neu5Ac(a2-3)Gal(b1-4)GlcNAc(b1-2)Man(a1-6)]Man(b1-4)GlcNAc(b1-4)GlcNAc
Outline: as §1

[30] = target: Neu5Ac(a2-3)Gal(b1-4)GlcNAc(b1-2)Man(a1-3)[Neu5Ac(a2-3)Gal(b1-4)GlcNAc(b1-2)Man(a1-6)]Man(b1-4)GlcNAc(b1-4)GlcNAc
Outline: as §1

[31] = target: Neu5Ac(a2-3)Gal(b1-4)GlcNAc(b1-2)Man(a1-3)[Neu5Ac(a2-3)Gal(b1-4)GlcNAc(b1-2)Man(a1-6)]Man(b1-4)GlcNAc(b1-4)[Fuc(a1-6)]GlcNAc
Outline: as §1

[32] = target: Neu5Ac(a2-3)Gal(b1-4)GlcNAc(b1-2)Man(a1-3)[Neu5Ac(a2-6)Gal(b1-4)GlcNAc(b1-2)Man(a1-6)]Man(b1-4)GlcNAc(b1-4)GlcNAc
Outline: as §1

[33] = target: Neu5Ac(a2-3)Gal(b1-4)GlcNAc(b1-2)[Neu5Ac(a2-3)Gal(b1-4)GlcNAc(b1-4)]Man(a1-3)[GlcNAc(b1-4)][Neu5Ac(a2-3)Gal(b1-4)GlcNAc(b1-2)[Neu5Ac(a2-3)Gal(b1-4)GlcNAc(b1-6)]Man(a1-6)]Man(b1-4)GlcNAc(b1-4)GlcNAc
Outline: as §1

B1: GS7807E-bfa-538-23-538 (Bacteroides fragilis) (protein)
chain: TDSFESFNTNEAGFDNDSKKQDFNYYGIPLGIIQQGIYFNYDWGSGKNWPFQTMQNLGADLFSGYVHDFNPFNEGKNNSTYYMMDGWNGSTWDNTYGYIMPEVQKSETINEKDNIGFFGITKILKVELMHRLSDLYGPIVYTQFGSKTGSTPDTQQEAYKAFFNDLDTGIAKIREYQKANPDIESFAKFDILMPQGKRTFSEWIRFANSLRLRLAVRIAMADSKLAVAEAQKALTDEEGLLEGNDEVVAVSTSSGYTNPFGEINKAWGEVFMNANMESLLVGYEDPRMEKYFDKATGSDATSLIDYKGTYKGIRQGTGFSHKNYNGHSKSTITQQTDAVLMTPAEVWFLRAEAALRGWSSESVKDCYEKGVKASFAQWGAAGAEAYLESDRKPSDYVDAFKAANNVKAVNTLTPKWDDAAGNEDKLGRIITQKWLAMFPEGGEAWAEQRRTGYPRLFPVLVNQSEGTVDTNLGPRRLNFFVGIKTTNPEQYTQLVNALGGIDNCGTRLWWDTGRNF
[1]
  glycan array binding signal (z-score): -0.651
[2]
  glycan array binding signal (z-score): 3.45
[3]
  glycan array binding signal (z-score): -0.656
[4]
  glycan array binding signal (z-score): -0.624
Man(a1-6)Man
  glycan array binding signal (z-score): -0.587
Man(b1-4)GlcNAc
  glycan array binding signal (z-score): -0.611
MurNAc(b1-4)GlcNAc
  glycan array binding signal (z-score): -0.66
Neu5Ac(a2-3)Gal
  glycan array binding signal (z-score): -0.641
[5]
  glycan array binding signal (z-score): -0.634
[6]
  glycan array binding signal (z-score): -0.298
[7]
  glycan array binding signal (z-score): -0.353
[8]
  glycan array binding signal (z-score): -0.27
[9]
  glycan array binding signal (z-score): -0.669
[10]
  glycan array binding signal (z-score): -0.613
[11]
  glycan array binding signal (z-score): 0.319
[12]
  glycan array binding signal (z-score): 0.435
[13]
  glycan array binding signal (z-score): -0.521
[14]
  glycan array binding signal (z-score): -0.707
[15]
  glycan array binding signal (z-score): -0.676
[16]
  glycan array binding signal (z-score): -0.673
[17]
  glycan array binding signal (z-score): -0.531
[18]
  glycan array binding signal (z-score): -0.277
[19]
  glycan array binding signal (z-score): -0.64
[20]
  glycan array binding signal (z-score): -0.626
[21]
  glycan array binding signal (z-score): -0.598
[22]
  glycan array binding signal (z-score): -0.149
[23]
  glycan array binding signal (z-score): -0.632
[24]
  glycan array binding signal (z-score): -0.384
[25]
  glycan array binding signal (z-score): -0.689
[26]
  glycan array binding signal (z-score): -0.639
Neu5Ac(a2-3)Gal(b1-4)Glc
  glycan array binding signal (z-score): -0.639
[27]
  glycan array binding signal (z-score): -0.664
[28]
  glycan array binding signal (z-score): 2.92
[29]
  glycan array binding signal (z-score): -0.689
[30]
  glycan array binding signal (z-score): -0.673
[31]
  glycan array binding signal (z-score): -0.302
[32]
  glycan array binding signal (z-score): -0.132
[33]
  glycan array binding signal (z-score): -0.734
